A word on the IC50: it is the concentration that gives 50% inhibition.

Data on one molecule can be found in patent publication US9061010B2, “Methods of treating a Flaviviridae family viral infection and compositions for treating a Flaviviridae family viral infection” (The Board of Trustees of the Leland Stanford Junior …, priority 2007, dated 2015).

Structures are written as SMILES.

In the assay the target is HCV NS4B binding to the 3′ terminus of the HCV negative strand RNA (Hepatitis C virus genotype 1a, UniProt P27958). Nature of the assay: Microfluidic (MITOMI) in vitro RNA binding assay of NS4B. Particulars: read-out: IC50 for inhibition of binding of HCV RNA by NS4B; microfluidics, FIG. 14.
Chain of HCV NS4B binding to the 3′ terminus of the HCV negative strand RNA (P27958 1712-1972, looked up, change not shown): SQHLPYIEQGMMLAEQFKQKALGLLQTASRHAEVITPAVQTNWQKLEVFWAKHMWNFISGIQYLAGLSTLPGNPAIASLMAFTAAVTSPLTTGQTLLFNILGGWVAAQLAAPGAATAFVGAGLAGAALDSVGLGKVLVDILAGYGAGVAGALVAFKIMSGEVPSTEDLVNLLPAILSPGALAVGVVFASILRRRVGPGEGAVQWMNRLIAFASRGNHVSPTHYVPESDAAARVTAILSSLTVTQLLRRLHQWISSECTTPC

Regarding `O=C(O)C1=CC(=C(c2ccc(O)c(C(=O)O)c2)c2ccc(O)c(C(=O)O)c2)C=CC1=O` [ATA, Aurintricarboxilic acid], the IC50 came out at 490 ± 10 nM.
